Consider 43 compounds from paper PMC4336329 (PLoS ONE, 2015).

The structures appear in SMILES notation. Out of some 310,000 compounds screened, about 14,000 (4.5%) showed an effect of 50% or more. Effects have a minus sign here. The list shows a part of the results.
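Further: peak tail current of the secondary pulse compared with the same well before compound.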

For this experiment, the target named is human ether-à-go-go-related gene (hERG) potassium channel (human, UniProt Q12809). Put plainly: primary screen, population patch clamp on CHO cells stably expressing hERG.
Sequence of human ether-à-go-go-related gene (hERG) potassium channel (Q12809 whole entry, looked up): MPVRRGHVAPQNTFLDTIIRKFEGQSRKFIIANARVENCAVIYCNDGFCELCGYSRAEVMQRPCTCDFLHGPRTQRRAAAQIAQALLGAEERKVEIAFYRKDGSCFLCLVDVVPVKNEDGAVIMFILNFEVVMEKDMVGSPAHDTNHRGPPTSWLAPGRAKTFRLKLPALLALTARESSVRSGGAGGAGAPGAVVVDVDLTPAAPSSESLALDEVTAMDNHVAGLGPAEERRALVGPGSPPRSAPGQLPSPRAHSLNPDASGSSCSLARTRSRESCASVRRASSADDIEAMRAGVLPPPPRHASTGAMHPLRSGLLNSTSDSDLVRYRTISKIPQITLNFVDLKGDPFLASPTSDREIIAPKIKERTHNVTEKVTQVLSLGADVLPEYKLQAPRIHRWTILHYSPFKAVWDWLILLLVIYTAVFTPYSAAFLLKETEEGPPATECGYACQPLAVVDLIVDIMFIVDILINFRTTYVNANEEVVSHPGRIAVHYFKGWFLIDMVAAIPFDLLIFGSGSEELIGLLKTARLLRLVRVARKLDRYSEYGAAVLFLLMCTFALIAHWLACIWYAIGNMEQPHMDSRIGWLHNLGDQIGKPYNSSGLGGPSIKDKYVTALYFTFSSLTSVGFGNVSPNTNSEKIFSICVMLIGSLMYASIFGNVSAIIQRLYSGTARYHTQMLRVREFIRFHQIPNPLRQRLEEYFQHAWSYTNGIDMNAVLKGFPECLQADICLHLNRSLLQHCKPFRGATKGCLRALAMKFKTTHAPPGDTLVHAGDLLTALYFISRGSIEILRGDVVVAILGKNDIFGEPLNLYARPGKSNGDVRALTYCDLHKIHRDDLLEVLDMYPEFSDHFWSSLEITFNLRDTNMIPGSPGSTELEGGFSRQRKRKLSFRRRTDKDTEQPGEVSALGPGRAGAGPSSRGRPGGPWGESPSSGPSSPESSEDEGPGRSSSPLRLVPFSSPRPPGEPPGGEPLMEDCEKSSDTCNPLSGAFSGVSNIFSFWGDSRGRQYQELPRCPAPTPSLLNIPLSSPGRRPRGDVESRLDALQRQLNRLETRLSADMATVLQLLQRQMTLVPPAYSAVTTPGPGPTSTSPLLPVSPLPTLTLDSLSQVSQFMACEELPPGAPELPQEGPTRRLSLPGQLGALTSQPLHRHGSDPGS
Turning to `O=C(NC1CCCCC1)C1(S(=O)(=O)c2ccc(Cl)cc2)CC1`, the “hERG current change (%, negative = inhibition) at 10uM” value is 0.692%.

As to `O=C1Nc2ccccc2C(=O)C1(Cl)Cc1ccccc1` (stereo not shown), the “hERG current change (%, negative = inhibition) at 10uM” value turned out to be 0.0294%.

As to `COc1ccc(NC(=O)C2CC(=O)OC2(C)C)cc1` (stereo not shown), the “hERG current change (%, negative = inhibition) at 10uM” value is 3.44%.

For `Cc1cc(OCC(O)CN2CCN(c3ccccn3)CC2)cc(C)c1Cl.Cl` (stereo not shown), the “hERG current change (%, negative = inhibition) at 10uM” value was -0.237%.

As for `COc1cc(NC(=O)CSc2nncn2C)c(C)cc1[N+](=O)[O-]`, the “hERG current change (%, negative = inhibition) at 10uM” value was determined as 29%.

In the case of `O=S(=O)(CCSc1ccccn1)c1nc2ccccc2s1`, the “hERG current change (%, negative = inhibition) at 10uM” value is given as -4.26%.

For `Cc1cc2nc(CN(C)Cc3c(C(=O)N(C)C)nc4ccc(Cl)cn34)[nH]c2cc1C`, the “hERG current change (%, negative = inhibition) at 10uM” value was -42.7%.

Regarding `COCCn1c(SCC(=O)NC2CCCCC2C)nc2ccccc2c1=O` (stereo not shown), the “hERG current change (%, negative = inhibition) at 10uM” value is reported as -2.48%.

Turning to `COc1ccc2[nH]c3c(=O)n(CCCC(=O)NC4CCC(C)CC4)c(=S)[nH]c3c2c1` (stereo not shown), the “hERG current change (%, negative = inhibition) at 10uM” value was determined as 16.8%.

`COc1ccc(N2CCN(CCNC(=O)Nc3ccc(C)cc3Cl)CC2)cc1`: the “hERG current change (%, negative = inhibition) at 10uM” value is recorded as -9.48%.

For the compound `COc1cccc(C(c2sc3ncnn3c2O)N2CC(C)OC(C)C2)c1` (stereo not shown), the “hERG current change (%, negative = inhibition) at 10uM” value turned out to be 0.441%.

On to `O=S(=O)(Nc1cnc2ccccc2c1)N1CCCCCC1`, for which the “hERG current change (%, negative = inhibition) at 10uM” value is recorded as -14.8%.

Turning to `CCSc1nnc(CNc2ccc(F)cc2)n1CC1CCCO1` (stereo not shown), the “hERG current change (%, negative = inhibition) at 10uM” value is -15.1%.

Regarding `CC(C)OCCCNc1ccc(N2C(=O)CCCC2=O)cc1[N+](=O)[O-]`, the “hERG current change (%, negative = inhibition) at 10uM” value was 3.25%.

Take `Brc1ccc(-c2c[n+]3c(n2-c2ccccc2)SCC3)cc1.[Br-]`: the “hERG current change (%, negative = inhibition) at 10uM” value is on record as -49.4%.

Take `Cc1nc(S(=O)(=O)Nc2ccc3c(c2)OCCO3)cn1C`: the “hERG current change (%, negative = inhibition) at 10uM” value came to 13.1%.

With `COc1cc(CC(=O)OCC(=O)NCc2ccc(C)cc2)cc(OC)c1OC`, the “hERG current change (%, negative = inhibition) at 10uM” value is on record as -6.31%.

For `Cc1noc(C)c1COC(=O)c1cc(C)n(-c2ccccc2)c1C`, the “hERG current change (%, negative = inhibition) at 10uM” value is listed as -2.49%.

As to `Cc1nc2c(C(=O)NCc3ccc(F)cc3)c[nH]n2c(=O)c1Cl`, the “hERG current change (%, negative = inhibition) at 10uM” value is 17.6%.

For `COc1ccccc1CNC(=O)CC(C)C`, the “hERG current change (%, negative = inhibition) at 10uM” value was found to be 14.7%.

On to `CCOC(=O)Cn1cnc2c(nnn2-c2ccc(C)cc2)c1=O`, for which the “hERG current change (%, negative = inhibition) at 10uM” value was -0.39%.

For `C[C@]12C(=O)N(c3ccc(F)cc3)C(=O)N1[C@@H]1c3ccccc3OC[C@@H]1[C@H]2c1ccccc1`, the “hERG current change (%, negative = inhibition) at 10uM” value was determined as 7.01%.

In the case of `Cc1ccc(Cn2ccc(NC(=O)c3cc(-c4cccc(Cl)c4)on3)n2)cc1`, the “hERG current change (%, negative = inhibition) at 10uM” value is on record as -6.37%.

Regarding `CCOc1cc(C)cc2oc(=O)c3c(c12)CCCC3`, the “hERG current change (%, negative = inhibition) at 10uM” value is -3.74%.

Consider `CCOC(=O)CSc1nc(=O)n2ccccc2n1`, for which the “hERG current change (%, negative = inhibition) at 10uM” value was found to be 13.2%.

Consider `Cl.OCCN(Cc1ccccc1)CC(O)COc1ccc(-c2ccccc2)cc1` (stereo not shown), for which the “hERG current change (%, negative = inhibition) at 10uM” value is given as -28.3%.

As for `C=CCOc1cccc(C2C(C(=O)c3ccc(C)o3)=C(O)C(=O)N2CCN(C)C)c1` (stereo not shown), the “hERG current change (%, negative = inhibition) at 10uM” value is reported as 6.81%.

`CCC(C)SCC(=O)Nc1ccc(S(=O)(=O)N2CCOCC2)cc1OC` (stereo not shown): the “hERG current change (%, negative = inhibition) at 10uM” value was -0.663%.

For `OCCC1CN(Cc2cccc(F)c2F)CCN1CCc1ccccc1` (stereo not shown), the “hERG current change (%, negative = inhibition) at 10uM” value is on record as -55.3%.

As for `CCOc1ccc(CNC(=O)CCS(=O)(=O)Cc2ccccc2C)cc1OC`, the “hERG current change (%, negative = inhibition) at 10uM” value turned out to be 7.73%.

Consider `COc1cc(O)c2c(=O)c(-c3ccc(O[C@@H]4O[C@H](CO)[C@@H](O)[C@H](O)[C@H]4O)cc3)coc2c1`, for which the “hERG current change (%, negative = inhibition) at 10uM” value is on record as 8.87%.

Take `COCc1ccccc1Cn1cnc2c1c(=O)n(C)c(=O)n2C`: the “hERG current change (%, negative = inhibition) at 10uM” value is reported as 8.87%.

In the case of `CC(Oc1ccc(Cl)cc1Cl)C(=O)OCC(=O)c1c(N)n(C)c(=O)n(C)c1=O` (stereo not shown), the “hERG current change (%, negative = inhibition) at 10uM” value is -71.2%.

Consider `COc1ccc(-c2ccnc3nc(-n4cccc4)nn23)cc1`, for which the “hERG current change (%, negative = inhibition) at 10uM” value is -14.7%.

As for `O=C(CCCc1nc2ccccc2s1)NCc1cccnc1`, the “hERG current change (%, negative = inhibition) at 10uM” value stood at 0.483%.

As to `CC(c1ccccc1)N1C(=O)c2ccccc2C1O` (stereo not shown), the “hERG current change (%, negative = inhibition) at 10uM” value is 6.24%.

On to `COc1ccc(CN(C(=S)Nc2ccccc2)C2CC(=O)N(c3ccc(F)cc3)C2=O)cc1` (stereo not shown), for which the “hERG current change (%, negative = inhibition) at 10uM” value is on record as 26.5%.

In the case of `O=C(c1cnn2c(C(F)(F)F)cc(-c3ccc4c(c3)OCO4)nc12)N1CCCC1`, the “hERG current change (%, negative = inhibition) at 10uM” value is -7.65%.

For `COc1ccc(C(C)NC(=O)Cc2ccc(Br)cc2)cc1` (stereo not shown), the “hERG current change (%, negative = inhibition) at 10uM” value is reported as 12.9%.

For `CC1=Nc2ccccc2/C1=C\c1nc(-c2ccccc2)oc1O`, the “hERG current change (%, negative = inhibition) at 10uM” value is 18.5%.

Turning to `CCOC(=O)N1CCN(S(=O)(=O)c2ccc(C(=O)N(CCN(CC)CC)c3nc4c(C)cccc4s3)cc2)CC1.Cl`, the “hERG current change (%, negative = inhibition) at 10uM” value is -24.3%.

For the compound `COCCCOc1ccnc(CS(=O)c2nc3ccccc3[nH]2)c1C` (stereo not shown), the “hERG current change (%, negative = inhibition) at 10uM” value was -1.7%.

`COC(=O)C1=C(c2ccc(C(C)=O)cc2)C[C@@H]2CC[C@H]1N2C(=O)NCc1ccc(F)cc1`: the “hERG current change (%, negative = inhibition) at 10uM” value was -30.9%.
